According to the supplement of paper PMC11417369:
The list shows a part of the results.

system: PfAP2-HC AP2 domain (GST-tagged); assay: gcPBM binding intensity (ln(normalized median fluorescence intensity)); higher = stronger DNA binding
How it was run: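 Binding intensity is the highest Masliner-normalised natural-log median intensity over replicate spots in either probe orientation. To obtain it, GST-tagged P. falciparum DNA-binding domains made in E. coli were incubated for 1 h on an Agilent 4 × 180k array of primer-extended double-stranded 36-bp intergenic genomic probes plus negative controls. Detection used Alexa488 anti-GST antibody with scanning at 488 nm.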

| Sequence | gcPBM binding intensity (ln) |
| --- | --- |
| ATTCGTAGTTTTATGAATTAATATAATAAAAATTAA [XGTACX_negctrl_site181] | 9.51 |
| TCGTAGTTACTATGGCAAGAAAATAAACGGTCTTGT [GTGCAC_negctrl_site684] | 9.73 |
| TTAAATAAAAAAATAACACACATATAAATATATATG [CACACA_site3175] | 9.7 |
| TTACATATTTTTTAACGTACATAAATATATATGTAT [XGTACX_site8406] | 9.63 |
| TTGTAAAAATTAATACATATATATATATATATATAT [CACACA_negctrl_site6] | 9.65 |
| ACTCAAACCTTTAGAGTGCAAAAAAAAAAAAAAAAA [GTGCAC_site9952] | 8.9 |
| AAAGAAATAAGGTGCACACATATACAGATATATATA [CACACA_site4399] | 10.3 |
| ATATATTTGATTTACACACTTACAATGTATATAAAT [CACACA_site2993] | 9.71 |
| CTCTTTTTTTGCAAAAGTACAAATGGGGATATATTT [XGTACX_site5813] | 9.57 |
| GCATTATTTACCACAACACACAAATATTTACCAATC [CACACA_site2669] | 10.1 |
| ACTATATATTTAATATGTACACATATTTCTGTCGAT [XGTACX_site6878] | 9.94 |
| TTCCTAAGAATAATCAGTACACATAAAAAGAACATA [XGTACX_site7861] | 9.61 |
| ATAATTATCATAGGATGTACATATTTATTTTGTATA [XGTACX_site7797] | 9.7 |
| ATATGTTAAATTATTCGTACGTAAAAAAAAATGGAT [XGTACX_site3465] | 9.68 |
| AAAAAGGGTATTATTACACACACGTAAATATTAATA [CACACA_site101] | 10.1 |
| AGATTTATACAAATATGTACACACTAAATATATATT [XGTACX_site864] | 9.85 |
| ATATAGTATTAATTTGCATGTCATGTATTAGGTCGA [TGCATGCA_site540] | 9.66 |
| TATTCATTTATAAGCTGTACACATTAATTTGAGCTA [XGTACX_site3616] | 9.48 |
| ATTAGGATATATTAAAGTACTAATATAATACATTTT [XGTACX_site7386] | 9.55 |
| CTTTTTTTAATATGCACACATATATTTTATATATTA [CACACA_site2077] | 9.95 |
| TTTTATATTTTTTGTGGTACATTTAGAGAACCAAAA [XGTACX_site1695] | 9.29 |
| TGTAAGTTGATATAATGTACATGTTTGATTTTTTTT [XGTACX_site7687] | 9.64 |
| TTTATAAACAAATGAACACACAAACATATATATATA [CACACA_site5713] | 10.2 |

| Sequence | gcPBM binding intensity (ln) |
| --- | --- |
| TTTATTTTATCATTTGCACACGCACCCAGACATAAA [CACACA_site4347] | 9.9 |
| CTATTATAATATTTTACACACCATGTAAGATATATA [CACACA_site7492] | 9.55 |
| TTTTTTCATTAGAAAACATGCAAATGTTTTTCACTT [TGCATGCA_site127] | 9.57 |
| TAACTAAGGAATAATACACACAGAAATATAGATTTA [CACACA_site6293] | 9.89 |
| TCTATTTTCTTATGAATGCACTAATTTATAAAACGT | 9.55 |
| CAACAAAAATTATTTACACACAAAAGGCAAGGAAAT [CACACA_site1971] | 9.94 |
| ATTTTAGATGAAAAAGCACACAACATATATATATAT [CACACA_site2295] | 10.1 |
| ATTCTTTTTTTTTGGAAATGTATTTTTATGTTTTGT [TGCATGCA_negctrl_site426] | 9.66 |
| TTGCCCATTTCATTAACACACAAATGTTTATATTCT [CACACA_site4569] | 10.1 |
| TTAACTCAAGAGTGTACACATATATATATATATATA [CACACA_site4334] | 9.83 |
| AATACCCATTTTAGTACACACTTAAAAAATTATTTT [CACACA_site5611] | 9.6 |
| ACGTTGAAGAAATACACATGCATATTCTATATATAT [TGCATGCA_site76] | 9.7 |
| TATATTTTTTAAAAAGCATGCAAAAAATAATGATCA [TGCATGCA_site48] | 9.45 |
| GTATAATATGAACACACACACACACGCAAAAAAAAA [CACACA_site7036] | 10.5 |
| TAATATATATAAACATGTACAAATCAAAAACAAAAG [XGTACX_site4076] | 10.2 |
| CTCTTATGCTAGGAAGTGCAATAGTATGGGTACCAC | 9.41 |
| TCATTTTATTTTTTCACACACACATATATATATATA [CACACA_site3333] | 10.2 |
| ATTTATTTTTATATAACACACAAAGTATAATATAAC [CACACA_site3582] | 9.62 |
| ATATATATATCGATCTGTACATATATTTATAGACAT [XGTACX_site4236] | 9.77 |
| ATATATTTATATTTATGTACATATCTTTATTTACGT [XGTACX_site6800] | 9.92 |
| TGTAAAACTGAAAAGGGTACATATAAATATATATAT [XGTACX_site69] | 9.57 |
| AAAGAAATACAATGATGTACATTTAAAAAAAATTAA [XGTACX_site4324] | 9.69 |
| ACAAGAAAATATATTTGTACATATATAATTTTATTT [XGTACX_site548] | 9.64 |

| Sequence | gcPBM binding intensity (ln) |
| --- | --- |
| ATTAGTAAGAATCATTGTACATTATAATATGTGGTA [XGTACX_site1341] | 9.61 |
| TTTTTAAAAAAGTAAAGTACAAAAAAAAGGAATATC [XGTACX_site588] | 10 |
| TGCTTCCTTAGGAATGTACACACATATATAATATGT [CACACA_site8048] | 10.2 |
| CTAAAATACAGACACACACACACATATATATATATA [CACACA_site4150] | 11 |
| ATATGCTTATATTATATATATAAGTCTATATATTTT [XGTACX_negctrl_site349] | 9.68 |
| TTAAAATAGGGCGAAGAAATTTTCTGTAAACATTTG [CACACA_negctrl_site1010] | 9.46 |
| GGGTTTTTAAAATGTAGTACATATGTAAACATCAAA [XGTACX_site1262] | 9.57 |
| ATATATATAAAATGTTGTACATATATATAAATAATA [XGTACX_site1661] | 9.57 |
| AGGTTTTCTTAAATAGTGCATTATAACAAAAATAAA | 9.4 |
| TCACGTATGTATATTACACACATACATATTATTCAC [CACACA_site4276] | 9.88 |
| CATAAATAAGCTTTAGTGCATTATATTTAAATTTTT | 9.55 |
| AACATCTCATATCGTACTACACTCATATATATATAT [XGTACX_site170] | 9.92 |
| ATAAAATGAACCTTTTGTACATATATATATATATAT [XGTACX_site4610] | 9.75 |
| ATATTATATATATATAAACACACAAATATTTTTATA [CACACA_site8486] | 9.71 |
| TGAATATTTCTATATACACACATATATATATATATA [CACACA_site3451] | 9.74 |
| TTTAATAATAATAAAAGTACACAAATATAAAGGAAA [XGTACX_site5203] | 9.77 |
| TAAAGTAAAGACATACTTATTTTCCATCCACTTCTT [CACACA_negctrl_site1288] | 9.72 |
| AAACAATAAAAGATTACACACATATATAGCATCTAT [CACACA_site5012] | 9.97 |
| TTTCATTTGTCGTTATGTACTTATTAAATATTATTA [XGTACX_site7709] | 9.72 |
| TCTGTATATTTCGCGCGTACGAACAAATTGATAATT [XGTACX_site7965] | 9.75 |
| ATATATATTTTTATAACACACAATGAAGTACATTAC [CACACA_site8270] | 9.7 |
| ATATAATATGGTATTACACACTGTTAAAAGTATGGC [CACACA_site5190] | 9.85 |
| ATATAGAACACCTGTGCATGCAAGTGCTAAAAAATT [TGCATGCA_site213] | 10 |

| Sequence | gcPBM binding intensity (ln) |
| --- | --- |
| TAATATTATTTAGAGTGTACTCATAAATCAACAAAA [XGTACX_site5269] | 9.4 |
| CTAAGCTAAGTAAGCTGTACTTCACCTTTATACAGT [XGTACX_site3087] | 9.61 |
| CTATTTTTATATTATTGTACGTTGTTATTATATATA [XGTACX_site1469] | 9.81 |
| TTTATATTTATATATACACACATATACATCCTATTT [CACACA_site3079] | 9.94 |
| ATATATATGGAAACAGTGCAATACATATATATATAT | 9.86 |
| TTTTTTTTTTTTAATACACACATATTTATATTTATT [CACACA_site7802] | 9.82 |
| TTTTTCTTAAAAAATTGTACACATATATATATATAT [XGTACX_site542] | 9.81 |
| ATTAAGTTAAACATTACACACTATGTATTATTTATG [CACACA_site973] | 9.84 |
| AATTGGGTAGGACATGCATGAGAAATTAATATTGCA [TGCATGCA_site356] | 9.96 |
| ATATATATATATATATGTACTAACCTTTTAAAATAT [XGTACX_site6488] | 9.65 |
| TATTACATTGTTGAATGTACTCATTTAAAATTTATA [XGTACX_site7987] | 9.51 |
| AATCAAAGCCCACATACACACACATATATATATATA [CACACA_site7987] | 10.3 |
| ATGTCAAACATTTGCACACAAAAAAATAAAAATTAA [CACACA_site692] | 9.93 |
| TTATACTAAATGAACACACACACATCTATATTTATA [CACACA_site6199] | 10.3 |
| AATTAAAATAATAATACACACATCATAGAAAAAGAC [CACACA_site292] | 10.2 |
| AAATTAGACTATAATACACACATAAAAAAAAAATCA [CACACA_site7672] | 9.82 |
| TTTTTTTTTTTTTTCTCACACATTTAATGATAATAT [CACACA_site5513] | 9.67 |
| CATATTTACTATCACACACACGATATATATAAATAT [CACACA_site1241] | 10.5 |
| TTTTTTTTTTTTTGCACACACATAATAGGTACAAAT [CACACA_site3577] | 9.89 |
| ATTTATATTAATGGATAAATAAATGTGTACTTGATA [CACACA_negctrl_site24] | 9.58 |
| TTCTTTATTATATGCACACGTACATATAATATATAT [CACACA_site2018] | 9.96 |
